Measured values published in PubChem BioAssay AID1468 (National Center for Advancing Translational Sciences (NCATS), 2008).
Hit rate of the full screen: of about 280,000 compounds, about 1,100 (0.39%) were called active. Inconclusive results, whose numbers are uncertain, are shown with a selection of clear calls. Calls follow the shape of the dose curve; as a rule, active = well fitted inhibition curve with a large enough effect; inconclusive = small, poorly fitted or top-dose-only effect, or effect the other way; inactive = flat fitted curve, though single readings scatter. Potencies beside an inconclusive call are fits to weak or partial responses and may not hold up.

What follows are compounds tested against Microtubule-associated protein tau (Homo sapiens) (UniProt P10636) (assay: qHTS for Inhibitors of Tau Fibril Formation, Fluorescence Polarization). Settings: K18 P301L tau heparin fibrillization, Alexa594 FP, 6 h; series mostly up to 57.7 µM.
Method in brief: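 Steps: dispense K18 P301L tau (15 uM plus 0.24 uM Alexa 594 tracer, final) in pH 7 sodium acetate; add compound; add heparin (20 uM final); incubate 6 hr, 37 C; add ThT (30 uM final); after 1 hr ambient, read FP.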
Also: nearly all actives have a fitted effect of over 55% in size.
Potency is read from the fitted curve at half-maximal effect; tags tell the direction and shape of the fitted curve.

Sequence of UniProt P10636 (P10636 whole entry, looked up): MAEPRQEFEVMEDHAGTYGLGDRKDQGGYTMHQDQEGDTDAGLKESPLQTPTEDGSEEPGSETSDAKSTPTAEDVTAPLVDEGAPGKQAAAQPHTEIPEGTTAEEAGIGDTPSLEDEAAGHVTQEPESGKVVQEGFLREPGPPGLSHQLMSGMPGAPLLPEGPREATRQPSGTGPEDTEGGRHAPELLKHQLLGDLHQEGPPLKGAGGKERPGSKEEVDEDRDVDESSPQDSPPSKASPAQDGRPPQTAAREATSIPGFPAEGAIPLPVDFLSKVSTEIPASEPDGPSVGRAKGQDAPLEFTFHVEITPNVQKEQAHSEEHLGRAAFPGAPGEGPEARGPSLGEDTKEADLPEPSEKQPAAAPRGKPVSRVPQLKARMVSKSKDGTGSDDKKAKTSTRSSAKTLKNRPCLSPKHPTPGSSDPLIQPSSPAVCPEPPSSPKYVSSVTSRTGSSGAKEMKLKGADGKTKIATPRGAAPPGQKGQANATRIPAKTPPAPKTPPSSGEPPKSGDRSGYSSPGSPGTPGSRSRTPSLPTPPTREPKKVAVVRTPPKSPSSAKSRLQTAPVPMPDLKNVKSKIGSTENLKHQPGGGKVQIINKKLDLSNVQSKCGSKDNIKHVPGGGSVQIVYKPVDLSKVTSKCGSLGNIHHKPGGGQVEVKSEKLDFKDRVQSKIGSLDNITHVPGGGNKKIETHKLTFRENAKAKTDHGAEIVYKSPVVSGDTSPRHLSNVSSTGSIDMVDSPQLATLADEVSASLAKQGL

Potency, inconclusive:
O=C1CCCN1CN(C(=O)c1ccccc1)c1ccc(F)cc1 28.2 µM [inhibitor, partial curve]
Cc1cc2nn(-c3cccc4ccccc34)nc2cc1NC(=O)c1cccs1 20 µM [inhibitor, partial curve]
Cc1nc(-c2cccnc2)sc1C(=O)Nc1cccc(C(F)(F)F)c1 12.6 µM [inhibitor, partial curve, poor fit]
CC1=C(C(=O)Nc2ccc(C)cc2)C(c2ccc(Cl)cc2)n2nnnc2N1 (stereo unspecified) 31.6 µM [inhibitor, single point]
O=C(CN1c2ccccc2Sc2ccccc21)NNC(=O)Nc1ccc(Cl)c(Cl)c1 39.8 µM [inhibitor, single point]
CC(C)c1ccccc1-n1c(SCC(=O)c2ccc3c(c2)NC(=O)CO3)nc2ccccc2c1=O 20 µM [inhibitor, single point]
COc1ccc(CC(=O)NNC2=Nc3cccc4cccc2c34)cc1 2.24 µM [activator, full curve, poor fit]
COc1cc(/C=N/Nc2ccc(C)cc2)cc(Br)c1O 5.01 µM [activator, single point]
O=C(/C=C/c1ccccc1)CC(=O)c1ccccc1O 12.6 µM [inhibitor, partial curve, poor fit]
Cc1ccc([N+](=O)[O-])cc1NC(=O)C(Sc1ccccc1)c1ccccc1 (stereo unspecified) 44.7 µM [inhibitor, single point]
CCCc1cc(C(=O)OC)c(NC(=O)c2cc(C)on2)s1 4.47 µM [inhibitor, full curve, poor fit]
Cc1ccc(N2C(=O)C(CN3CCOCC3)C2c2ccccc2)cc1 (stereo unspecified) 1.78 µM [inhibitor, partial curve, poor fit]
CCc1ccc2oc(-c3cc(N)cc(C)c3O)nc2c1 0.0224 µM [activator, full curve, poor fit]
CCOC(=O)c1c(Nc2ccc(Cl)cc2)sc(/C=C2\C=Nc3ccccc32)c1O 12.6 µM [activator, partial curve]
COc1ccc(C(=O)Nc2c(C(=O)c3ccccc3)oc3ccccc23)cc1 22.4 µM [inhibitor, partial curve]
COc1ccc(OC)c(C2C(C(=O)Nc3ccccc3OC)=C(C)Nc3c(C(=O)Nc4ccc(F)cc4)cnn32)c1 (stereo unspecified) 25.1 µM [inhibitor, partial curve]
O=C(Nc1cc(Cl)cc(Cl)c1)c1cc(S(=O)(=O)N2CCc3ccccc3C2)ccc1F 15.8 µM [inhibitor, partial curve]
O=C(Nc1cccc(F)c1)c1ccc(-c2ccccc2C(F)(F)F)o1 15.8 µM [inhibitor, partial curve, poor fit]
COc1ccc(NS(=O)(=O)c2ccc3oc(Nc4ccc5c(c4)OCCO5)nc3c2)cc1 3.16 µM [activator, single point]
Cc1nn2c(NCc3ccccn3)cc(C(C)(C)C)nc2c1-c1ccccc1 6.31 µM [activator, single point]
Oc1c(Br)cc(Br)cc1C=Nc1ccc2[nH]ncc2c1 15.8 µM [inhibitor, partial curve]
Cc1ccc(Oc2ccc(NC(=O)Cn3ccsc3=N)cc2)cc1 11.2 µM [activator, partial curve]
CCOC(=O)C(=O)Nc1c(C(=O)Nc2cccc(F)c2)oc2ccccc12 10 µM [inhibitor, partial curve]
CSc1ncccc1C(=O)Nc1nc2ccc(F)cc2s1 39.8 µM [inhibitor, single point]
COc1cc(Cl)c(C)cc1NC(=O)c1ccc(NS(=O)(=O)c2ccc(F)c(F)c2)cc1 3.55 µM [inhibitor, full curve]
COc1ccc(CNC(=O)c2cc(-c3ccc(C)c(C)c3)n[nH]2)cc1 39.8 µM [inhibitor, single point]
O=C(/C=C/c1ccc(O)c(O)c1)c1ccccc1O 1 µM [activator, full curve, poor fit]
Cn1cc(/C=C(\C#N)C(=O)Nc2ncc(Cc3ccc(Cl)cc3)s2)c2ccccc21 28.2 µM [inhibitor, single point]
CC(C)=CCc1c(O)c(CC=C(C)C)c2c(c1O)C(=O)CC(c1ccc(O)cc1)O2 (stereo unspecified) 1 µM [inhibitor, single point]
Cc1ccc(-c2csc(SCC(=O)Nc3cc(C)on3)n2)cc1 39.8 µM [inhibitor, single point]
O=C(O)c1cc(-c2ccco2)nc2ccc(Br)cc12 22.4 µM [inhibitor, single point]
CSc1cccc(NC(=O)Nc2ccccc2)c1 35.5 µM [inhibitor, single point]
Cn1c(NC(=O)C2c3ccccc3Oc3ccccc32)cc(=O)n(C)c1=O 25.1 µM [inhibitor, partial curve]
O=C(CSC1=Nc2ccccc2C2=NC(CC(=O)NC3CCCCC3)C(=O)N12)NCc1ccco1 (stereo unspecified) 17.8 µM [inhibitor, single point]
Cc1ccccc1C(=O)Nc1ccc2nc(Nc3cccc(C(F)(F)F)c3)cc(C)c2c1 39.8 µM [inhibitor, single point]
CC1(OC(=O)CCc2ccccc2)C(=O)C=C2C=C(c3ccc(C#N)cc3)N(CCc3ccccn3)C=C2C1=O (stereo unspecified) 31.6 µM [inhibitor, partial curve]
FC(F)(F)c1cccc(-c2nnn3c2nc(NC2CCCCC2)c2ccccc23)c1 4.47 µM [inhibitor, partial curve]
COc1ccc(NC(=O)C(C)n2nnc3sc(-c4ccccc4)cc3c2=O)cc1Cl (stereo unspecified) 22.4 µM [inhibitor, partial curve]
Cc1nn(CC2CC2)c(=O)n1-c1ccc(C(C)C)cc1 2.51 µM [inhibitor, partial curve, poor fit]
CCOc1ccc(-n2c(SCC(=O)Nc3cc(C)on3)nnc2-c2c[nH]c3ccccc23)cc1 12.6 µM [inhibitor, partial curve]
COc1cccc(-c2[nH]nc3c2C(c2ccc(C)o2)C(C#N)=C(N)O3)c1 (stereo unspecified) 3.16 µM [inhibitor, single point]
O=C(NCc1ccc(Cl)cc1)c1ccc2c(c1)NC(=O)C(CS(=O)(=O)Cc1ccccc1Cl)N2 (stereo unspecified) 31.6 µM [inhibitor, partial curve]
O=C(O)CCn1cnc2onc(-c3ccccc3Cl)c2c1=O 0.199 µM [inhibitor, full curve, poor fit]
Cc1occc1C(=O)N/N=C/c1ccc(OCc2ccccc2)cc1 6.31 µM [inhibitor, partial curve]
Cc1nn(C)c(C)c1C1C(C#N)=C(N)OC2=C1C(=O)CC(C)(C)C2 (stereo unspecified) 3.98 µM [activator, partial curve]
CCOc1ccccc1OCC(=O)NCc1ccco1 44.7 µM [inhibitor, single point]
Cc1ccc2nc(/C(C#N)=C\c3ccc([N+](=O)[O-])o3)[nH]c2c1 8.91 µM [inhibitor, partial curve, poor fit]
COc1ccc(-c2cc(C(F)(F)F)n3nc(C(=O)Nc4cccc(C(F)(F)F)c4)c(Br)c3n2)cc1 39.8 µM [inhibitor, single point]

Potency, inactive:
CCOc1ccccc1/C=N/NC(=O)c1cccc(Cl)c1
COc1cccc(/C=N/Nc2cc(-n3nc(C)cc3-c3ccccc3)ncn2)c1O
c1ccc(-c2nc3cc4ccccc4cc3[nH]2)nc1
CCN(CC)c1ccc(/C=N/n2c(C)cc(C)cc2=O)cc1
CCOC(=O)c1[nH]n(-c2ccc(Cl)cc2)c(=O)c1C
O=C(c1c(O)c2ccccc2oc1=O)C1CCCCC1
C/C(CC(=O)Nc1cc(C)ccn1)=N\NC(=O)c1cccc(C)c1
CCN1CCN(c2nc3c(c(=O)[nH]c(=O)n3C)n2CCSc2nc3ccccc3s2)CC1
Fc1ccc(NC(=S)Nc2ccc(Cl)cc2)cc1
CC1CCCN(Cc2nc3c(c(=O)n(C)c(=O)n3C)n2Cc2ccc(Cl)cc2Cl)C1 (stereo unspecified)
NS(=O)(=O)c1ccc(CCNC(=O)c2ccc3nc(Cc4ccccc4)oc3c2)cc1
COc1ccc(CNC(=O)CSc2nnnn2-c2ccccc2)cc1
Cc1ccc(C(=O)CNc2cccc(Cl)c2)cc1
CCN1C(=O)c2cccc3c(S(=O)(=O)Nc4ccncc4)ccc1c23
ClCc1csc(-c2ccc(Cl)cc2)n1
CCC1CCCCN1C(=O)Cn1c(=O)n(CCCCCC(=O)NCc2ccc(F)cc2)c(=O)c2sccc21 (stereo unspecified)
CC1C/C(=N/Nc2nc3ccccc3[nH]2)CC(C)(C)C1 (stereo unspecified)
CCSc1nc(-c2ccc(Cl)cc2)nc2c1Cc1c(CO)cnc(C)c1O2
